# Measurements reported in publication PMC12820563, “FoxP3 forms a head-to-head dimer in vivo and stabilizes its multimerization on adjacent microsatellites”.
# Some of the results follow.
# Target: T1, MBP-FoxP1dN (Mus musculus, UniProt P58462 326-579)
# T1 sequence: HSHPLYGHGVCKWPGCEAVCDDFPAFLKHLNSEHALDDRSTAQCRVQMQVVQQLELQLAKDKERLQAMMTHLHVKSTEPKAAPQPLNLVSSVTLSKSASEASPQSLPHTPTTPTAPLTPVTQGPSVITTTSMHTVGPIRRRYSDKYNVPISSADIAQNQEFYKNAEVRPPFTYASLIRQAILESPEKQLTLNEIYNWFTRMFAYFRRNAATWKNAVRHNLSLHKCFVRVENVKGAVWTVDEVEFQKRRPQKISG
# Experiment: PD-seq (MBP pull-down with sequencing); 20 mM Tris-HCl pH 7.5, 100 mM NaCl, 1.5 mM MgCl2, 0.4 uM protein, 0.1 uM dsDNA library, 30 min, room temperature, amylose pull-down; high values mean tight binding
# Conditions: protein: recombinant; tags: His6-MBP; chain copies: 2; dsDNA, one strand shown
# In short: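 His6-MBP-tagged mouse FoxP3 or FoxP1 fragment lacking the N-terminus, expressed in E. coli, was mixed at 0.4 µM with 0.1 µM Klenow-filled double-stranded degenerate DNA library. Incubation was 30 min at room temperature in Tris pH 7.5 buffer with NaCl and MgCl2. Complexes were caught on amylose resin and washed three times; DNA was released with proteinase K, PCR-barcoded and Illumina-sequenced. Binding is reads-per-million enrichment, pull-down over input, with replicates pooled.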
row,Sequence,binding signal
1,GATGATTGTTCTCCCAGCTGATGAATTCCTGTCGTCGAGTAAACAAATTTTCCTAATCTTTCTGTTCAAGCGCCATCTAC,0.876 RPM ratio (pull-down/input)
2,GATGATTGTTCTCCCAGCTGATGAATTCAGGAGTTCGAGTAAACAAATTTTCCTAATCTTTCTGTTCAAGCGCCATCTAC,0.809 RPM ratio (pull-down/input)
3,GATGATTGTTCTCCCAGCTGATGAATTCCCACAATCGAGTAAACAAATTTTCCTAATCTTTCTGTTCAAGCGCCATCTAC,1.21 RPM ratio (pull-down/input)
4,GATGATTGTTCTCCCAGCTGATGAATTCCGTGGGTCGAGTAAACAAATTTTCCTAATCTTTCTGTTCAAGCGCCATCTAC,0.779 RPM ratio (pull-down/input)
5,GATGATTGTTCTCCCAGCTGATGAATTCCATTACTCGAGTAAACAAATTTTCCTAATCTTTCTGTTCAAGCGCCATCTAC,0.874 RPM ratio (pull-down/input)
6,GATGATTGTTCTCCCAGCTGATGAATTACGAACGTCGAGTAAACAAATTTTCCTAATCTTTCTGTTCAAGCGCCATCTAC,1 RPM ratio (pull-down/input)
7,GATGATTGTTCTCCCAGCTGATGAATTACCCGAATCGAGTAAACAAATTTTCCTAATCTTTCTGTTCAAGCGCCATCTAC,0.916 RPM ratio (pull-down/input)
8,GATGATTGTTCTCCCAGCTGATGAATTAATCTTGTCGAGTAAACAAATTTTCCTAATCTTTCTGTTCAAGCGCCATCTAC,0.957 RPM ratio (pull-down/input)
9,GATGATTGTTCTCCCAGCTGATGAATTTCGCAAATCGAGTAAACAAATTTTCCTAATCTTTCTGTTCAAGCGCCATCTAC,1.08 RPM ratio (pull-down/input)
10,GATGATTGTTCTCCCAGCTGATGAATTAGATCTATCGAGTAAACAAATTTTCCTAATCTTTCTGTTCAAGCGCCATCTAC,0.973 RPM ratio (pull-down/input)
11,GATGATTGTTCTCCCAGCTGATGAATTCGAAAACTCGAGTAAACAAATTTTCCTAATCTTTCTGTTCAAGCGCCATCTAC,0.926 RPM ratio (pull-down/input)
12,GATGATTGTTCTCCCAGCTGATGAATTGTCCCCCTCGAGTAAACAAATTTTCCTAATCTTTCTGTTCAAGCGCCATCTAC,0.974 RPM ratio (pull-down/input)
13,GATGATTGTTCTCCCAGCTGATGAATTCGATAGCTCGAGTAAACAAATTTTCCTAATCTTTCTGTTCAAGCGCCATCTAC,0.826 RPM ratio (pull-down/input)
14,GATGATTGTTCTCCCAGCTGATGAATTAGCAGGTTCGAGTAAACAAATTTTCCTAATCTTTCTGTTCAAGCGCCATCTAC,0.803 RPM ratio (pull-down/input)
15,GATGATTGTTCTCCCAGCTGATGAATTCGTCGCCTCGAGTAAACAAATTTTCCTAATCTTTCTGTTCAAGCGCCATCTAC,0.906 RPM ratio (pull-down/input)
16,GATGATTGTTCTCCCAGCTGATGAATTTCGCCCCTCGAGTAAACAAATTTTCCTAATCTTTCTGTTCAAGCGCCATCTAC,0.825 RPM ratio (pull-down/input)
17,GATGATTGTTCTCCCAGCTGATGAATTTGGGCACTCGAGTAAACAAATTTTCCTAATCTTTCTGTTCAAGCGCCATCTAC,0.896 RPM ratio (pull-down/input)
18,GATGATTGTTCTCCCAGCTGATGAATTGTTGGGTTCGAGTAAACAAATTTTCCTAATCTTTCTGTTCAAGCGCCATCTAC,1.26 RPM ratio (pull-down/input)
19,GATGATTGTTCTCCCAGCTGATGAATTTGGAGCATCGAGTAAACAAATTTTCCTAATCTTTCTGTTCAAGCGCCATCTAC,1.01 RPM ratio (pull-down/input)
20,GATGATTGTTCTCCCAGCTGATGAATTTGATAGCTCGAGTAAACAAATTTTCCTAATCTTTCTGTTCAAGCGCCATCTAC,0.868 RPM ratio (pull-down/input)
21,GATGATTGTTCTCCCAGCTGATGAATTTGCTTGGTCGAGTAAACAAATTTTCCTAATCTTTCTGTTCAAGCGCCATCTAC,1.04 RPM ratio (pull-down/input)

row,Sequence,binding signal
1,GATGATTGTTCTCCCAGCTGATGAATTGGAGGTATCGAGTAAACAAATTTTCCTAATCTTTCTGTTCAAGCGCCATCTAC,0.922 RPM ratio (pull-down/input)
2,GATGATTGTTCTCCCAGCTGATGAATTCCACGGCTCGAGTAAACAAATTTTCCTAATCTTTCTGTTCAAGCGCCATCTAC,0.718 RPM ratio (pull-down/input)
3,GATGATTGTTCTCCCAGCTGATGAATTGGACCACTCGAGTAAACAAATTTTCCTAATCTTTCTGTTCAAGCGCCATCTAC,0.821 RPM ratio (pull-down/input)
4,GATGATTGTTCTCCCAGCTGATGAATTGCAGGACTCGAGTAAACAAATTTTCCTAATCTTTCTGTTCAAGCGCCATCTAC,1.04 RPM ratio (pull-down/input)
5,GATGATTGTTCTCCCAGCTGATGAATTCTTCGCTTCGAGTAAACAAATTTTCCTAATCTTTCTGTTCAAGCGCCATCTAC,0.889 RPM ratio (pull-down/input)
6,GATGATTGTTCTCCCAGCTGATGAATTCAGCGGATCGAGTAAACAAATTTTCCTAATCTTTCTGTTCAAGCGCCATCTAC,0.793 RPM ratio (pull-down/input)
7,GATGATTGTTCTCCCAGCTGATGAATTTGAATGGTCGAGTAAACAAATTTTCCTAATCTTTCTGTTCAAGCGCCATCTAC,0.784 RPM ratio (pull-down/input)
8,GATGATTGTTCTCCCAGCTGATGAATTTGTACGGTCGAGTAAACAAATTTTCCTAATCTTTCTGTTCAAGCGCCATCTAC,0.999 RPM ratio (pull-down/input)
9,GATGATTGTTCTCCCAGCTGATGAATTGGGCCTTTCGAGTAAACAAATTTTCCTAATCTTTCTGTTCAAGCGCCATCTAC,0.774 RPM ratio (pull-down/input)
10,GATGATTGTTCTCCCAGCTGATGAATTACTCGTATCGAGTAAACAAATTTTCCTAATCTTTCTGTTCAAGCGCCATCTAC,1.17 RPM ratio (pull-down/input)
11,GATGATTGTTCTCCCAGCTGATGAATTTGGATCTTCGAGTAAACAAATTTTCCTAATCTTTCTGTTCAAGCGCCATCTAC,0.87 RPM ratio (pull-down/input)
12,GATGATTGTTCTCCCAGCTGATGAATTTCACGCGTCGAGTAAACAAATTTTCCTAATCTTTCTGTTCAAGCGCCATCTAC,0.963 RPM ratio (pull-down/input)
13,GATGATTGTTCTCCCAGCTGATGAATTCATCACGTCGAGTAAACAAATTTTCCTAATCTTTCTGTTCAAGCGCCATCTAC,0.907 RPM ratio (pull-down/input)
14,GATGATTGTTCTCCCAGCTGATGAATTCCACCCATCGAGTAAACAAATTTTCCTAATCTTTCTGTTCAAGCGCCATCTAC,0.823 RPM ratio (pull-down/input)
15,GATGATTGTTCTCCCAGCTGATGAATTTGGCCTATCGAGTAAACAAATTTTCCTAATCTTTCTGTTCAAGCGCCATCTAC,0.852 RPM ratio (pull-down/input)
16,GATGATTGTTCTCCCAGCTGATGAATTTATACCCTCGAGTAAACAAATTTTCCTAATCTTTCTGTTCAAGCGCCATCTAC,1.02 RPM ratio (pull-down/input)
17,GATGATTGTTCTCCCAGCTGATGAATTGCCGAACTCGAGTAAACAAATTTTCCTAATCTTTCTGTTCAAGCGCCATCTAC,0.889 RPM ratio (pull-down/input)
18,GATGATTGTTCTCCCAGCTGATGAATTTGCAATTTCGAGTAAACAAATTTTCCTAATCTTTCTGTTCAAGCGCCATCTAC,1.22 RPM ratio (pull-down/input)
19,GATGATTGTTCTCCCAGCTGATGAATTTTCGTAGTCGAGTAAACAAATTTTCCTAATCTTTCTGTTCAAGCGCCATCTAC,1.04 RPM ratio (pull-down/input)
20,GATGATTGTTCTCCCAGCTGATGAATTCGCTTTGTCGAGTAAACAAATTTTCCTAATCTTTCTGTTCAAGCGCCATCTAC,0.807 RPM ratio (pull-down/input)
21,GATGATTGTTCTCCCAGCTGATGAATTGGTATCGTCGAGTAAACAAATTTTCCTAATCTTTCTGTTCAAGCGCCATCTAC,1.04 RPM ratio (pull-down/input)

row,Sequence,binding signal
1,GATGATTGTTCTCCCAGCTGATGAATTCAGAATTTCGAGTAAACAAATTTTCCTAATCTTTCTGTTCAAGCGCCATCTAC,0.888 RPM ratio (pull-down/input)
2,GATGATTGTTCTCCCAGCTGATGAATTTACACCGTCGAGTAAACAAATTTTCCTAATCTTTCTGTTCAAGCGCCATCTAC,1.14 RPM ratio (pull-down/input)
3,GATGATTGTTCTCCCAGCTGATGAATTCTGGCGCTCGAGTAAACAAATTTTCCTAATCTTTCTGTTCAAGCGCCATCTAC,0.806 RPM ratio (pull-down/input)
4,GATGATTGTTCTCCCAGCTGATGAATTATCACTCTCGAGTAAACAAATTTTCCTAATCTTTCTGTTCAAGCGCCATCTAC,0.986 RPM ratio (pull-down/input)
5,GATGATTGTTCTCCCAGCTGATGAATTAGAATGATCGAGTAAACAAATTTTCCTAATCTTTCTGTTCAAGCGCCATCTAC,0.914 RPM ratio (pull-down/input)
6,GATGATTGTTCTCCCAGCTGATGAATTCCGTTTTTCGAGTAAACAAATTTTCCTAATCTTTCTGTTCAAGCGCCATCTAC,0.919 RPM ratio (pull-down/input)
7,GATGATTGTTCTCCCAGCTGATGAATTTTCGTGCTCGAGTAAACAAATTTTCCTAATCTTTCTGTTCAAGCGCCATCTAC,0.896 RPM ratio (pull-down/input)
8,GATGATTGTTCTCCCAGCTGATGAATTTTGAGGTTCGAGTAAACAAATTTTCCTAATCTTTCTGTTCAAGCGCCATCTAC,0.883 RPM ratio (pull-down/input)
9,GATGATTGTTCTCCCAGCTGATGAATTAGCGTCGTCGAGTAAACAAATTTTCCTAATCTTTCTGTTCAAGCGCCATCTAC,0.918 RPM ratio (pull-down/input)
10,GATGATTGTTCTCCCAGCTGATGAATTGCGATGATCGAGTAAACAAATTTTCCTAATCTTTCTGTTCAAGCGCCATCTAC,1.11 RPM ratio (pull-down/input)
11,GATGATTGTTCTCCCAGCTGATGAATTATCCAGATCGAGTAAACAAATTTTCCTAATCTTTCTGTTCAAGCGCCATCTAC,0.867 RPM ratio (pull-down/input)
12,GATGATTGTTCTCCCAGCTGATGAATTTAAGAAATCGAGTAAACAAATTTTCCTAATCTTTCTGTTCAAGCGCCATCTAC,1.07 RPM ratio (pull-down/input)
13,GATGATTGTTCTCCCAGCTGATGAATTGCGAACATCGAGTAAACAAATTTTCCTAATCTTTCTGTTCAAGCGCCATCTAC,1.15 RPM ratio (pull-down/input)
14,GATGATTGTTCTCCCAGCTGATGAATTGGGTCTCTCGAGTAAACAAATTTTCCTAATCTTTCTGTTCAAGCGCCATCTAC,0.824 RPM ratio (pull-down/input)
15,GATGATTGTTCTCCCAGCTGATGAATTGCGTAAGTCGAGTAAACAAATTTTCCTAATCTTTCTGTTCAAGCGCCATCTAC,1.02 RPM ratio (pull-down/input)
16,GATGATTGTTCTCCCAGCTGATGAATTTCCGGATTCGAGTAAACAAATTTTCCTAATCTTTCTGTTCAAGCGCCATCTAC,0.821 RPM ratio (pull-down/input)
17,GATGATTGTTCTCCCAGCTGATGAATTCGGACCATCGAGTAAACAAATTTTCCTAATCTTTCTGTTCAAGCGCCATCTAC,0.851 RPM ratio (pull-down/input)
18,GATGATTGTTCTCCCAGCTGATGAATTATAGCTTTCGAGTAAACAAATTTTCCTAATCTTTCTGTTCAAGCGCCATCTAC,1.03 RPM ratio (pull-down/input)
19,GATGATTGTTCTCCCAGCTGATGAATTCCGCTACTCGAGTAAACAAATTTTCCTAATCTTTCTGTTCAAGCGCCATCTAC,0.836 RPM ratio (pull-down/input)
20,GATGATTGTTCTCCCAGCTGATGAATTATAGATATCGAGTAAACAAATTTTCCTAATCTTTCTGTTCAAGCGCCATCTAC,1.03 RPM ratio (pull-down/input)
21,GATGATTGTTCTCCCAGCTGATGAATTCTGAGCTTCGAGTAAACAAATTTTCCTAATCTTTCTGTTCAAGCGCCATCTAC,0.821 RPM ratio (pull-down/input)
